Article PMC4336329 (PLoS ONE, 2015)
About 2,200 (0.71%) of roughly 310,000 compounds showed an effect of 50% or more. Effects have a minus sign here. This is one part of the list.

target: human ether-à-go-go-related gene (hERG) potassium channel (human, UniProt Q12809); assay: primary screen, population patch clamp on CHO cells stably expressing hERG
Sequence (Q12809 whole entry, looked up): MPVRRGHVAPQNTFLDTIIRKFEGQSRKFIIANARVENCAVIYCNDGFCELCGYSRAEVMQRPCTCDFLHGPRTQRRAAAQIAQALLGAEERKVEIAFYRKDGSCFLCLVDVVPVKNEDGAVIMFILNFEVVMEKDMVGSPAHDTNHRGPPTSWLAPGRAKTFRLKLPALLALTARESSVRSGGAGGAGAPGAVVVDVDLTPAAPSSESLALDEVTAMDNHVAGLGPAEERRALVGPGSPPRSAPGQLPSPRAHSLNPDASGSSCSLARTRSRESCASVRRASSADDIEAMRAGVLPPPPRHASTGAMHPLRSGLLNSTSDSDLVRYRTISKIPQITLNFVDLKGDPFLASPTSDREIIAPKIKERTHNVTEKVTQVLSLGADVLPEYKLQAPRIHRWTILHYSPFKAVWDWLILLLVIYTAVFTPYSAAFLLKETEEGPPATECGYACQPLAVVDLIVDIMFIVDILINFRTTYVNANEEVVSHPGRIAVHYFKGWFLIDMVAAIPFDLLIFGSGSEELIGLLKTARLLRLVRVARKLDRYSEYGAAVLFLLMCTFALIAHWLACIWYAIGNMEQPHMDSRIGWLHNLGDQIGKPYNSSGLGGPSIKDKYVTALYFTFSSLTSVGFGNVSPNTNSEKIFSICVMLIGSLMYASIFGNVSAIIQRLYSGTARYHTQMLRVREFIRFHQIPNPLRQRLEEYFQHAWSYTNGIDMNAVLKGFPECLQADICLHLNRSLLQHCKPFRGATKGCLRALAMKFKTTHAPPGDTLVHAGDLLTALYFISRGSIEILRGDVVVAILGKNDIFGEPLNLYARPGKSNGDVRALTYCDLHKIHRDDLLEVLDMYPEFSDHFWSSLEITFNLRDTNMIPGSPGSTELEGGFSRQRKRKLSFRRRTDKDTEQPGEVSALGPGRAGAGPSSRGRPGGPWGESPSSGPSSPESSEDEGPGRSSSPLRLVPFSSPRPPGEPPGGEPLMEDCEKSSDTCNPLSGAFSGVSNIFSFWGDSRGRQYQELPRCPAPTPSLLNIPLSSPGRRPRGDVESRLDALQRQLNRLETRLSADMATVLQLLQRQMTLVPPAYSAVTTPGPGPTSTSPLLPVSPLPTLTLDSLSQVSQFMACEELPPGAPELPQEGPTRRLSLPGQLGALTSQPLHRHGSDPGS

Row | Compound | hERG current change (%, negative = inhibition) at 1uM
1 | COc1cc(/C=N/NC(=O)CNC(=O)c2cccs2)ccc1O | 9.62%
2 | COc1ccc(C(=O)CN2C(=O)c3ccccc3C2=O)cc1 | 13%
3 | Cc1cc(C)nc(N2N=C(c3ccccc3)CC2=O)n1 | 4.89%
4 | Cc1ccccc1OCCCCc1c(C)n[nH]c1C | 6.27%
5 | Cc1nn(Cc2ccccc2Cl)c2sc(C(=O)NCc3ccc4c(c3)OCO4)cc12 | 8.36%
6 | CCN(CC(=O)Nc1ccc(Br)c(C)c1)CC(=O)NC(C)C | 4.01%
7 | O=C(NCCCc1ccncc1)C1CCC(=O)N(Cc2cccc(C(F)(F)F)c2)C1 (stereo not drawn) | 2.3%
8 | O=C(NNC(=S)Nc1ccc(Cl)cc1)c1cccs1 | 4.33%
9 | CN1C(=O)Cc2cc(S(=O)(=O)NCc3cccs3)ccc21 | 11.1%
10 | CCN(CC)S(=O)(=O)c1cc(NC(=O)C2CSC3(C)CCC(=O)N23)ccc1C (stereo not drawn) | -2.52%
11 | O=C(/C=C/c1ccc(S(=O)(=O)N2CCOCC2)cc1)NC(=S)NCCCn1ccnc1 | 12.7%
12 | O=C(NCCN1CCCCC1)c1ccc(/C=N/O)nc1 | 11.1%
13 | CC(C)(C)OC(=O)N1CCOCCOCCN(C(=O)OC(C)(C)C)CCOCC1 | 0.838%
14 | CCn1c(C(Cc2ccccc2)NC(=O)COC)nc2ccccc21 (stereo not drawn) | 2.31%
15 | S=C1NCN(Cc2ccco2)CN1 | 14.6%
16 | c1ccc(-c2nccc(-c3ccc4c(c3)OCO4)n2)cc1 | 13.7%
17 | Cc1cccc(CCNS(=O)(=O)c2ccc3c(c2)NC(=O)CS3)c1 | 9.39%
18 | Cc1ccc(OCCNC(=O)Cn2cnc3c(=O)n(C)c(=O)n(C)c32)cc1C | 14.1%
19 | O=C(c1ccc2c(c1)OCO2)C1CCCN(Cc2c(F)cccc2Cl)C1 (stereo not drawn) | 0.9%
20 | COc1nccnc1NS(=O)(=O)c1ccc(NC(=O)c2ccccc2Br)cc1 | 13.1%
21 | Cc1ccc(-n2nc(C)c(NC(=O)CCl)c2C)cc1C | 12%
22 | COc1ccc(NC(=O)CSc2nnc(NC(=O)CN3CCOCC3)s2)cc1 | 16.4%
23 | CCN1CCN(CC(=O)N2N=CCC2c2ccccc2)CC1 (stereo not drawn) | 10.2%

Row | Compound | hERG current change (%, negative = inhibition) at 1uM
24 | CCc1nnc(NC(=O)[C@@H](NC(=O)c2cccc(S(=O)(=O)N(CC)CC)c2)C(C)C)s1 | 6.79%
25 | Cc1noc2ncc(C(=O)c3cc(F)ccc3O)cc12 | 7.19%
26 | COc1cccc(CNC(=O)CSc2nnc3c(n2)[nH]c2ccc(F)cc23)c1 | 3.58%
27 | COC(=O)C(C(=O)OC)c1ccc(NC(=O)c2cccc(Cl)c2)cc1 | 9.74%
28 | CCOc1ccc(C2C(C#N)=C(N)SC(N)=C2C#N)c(OCC)c1 | 14.6%
29 | CCOCCCNC(=O)/C(C#N)=C/c1ccc(C)o1 | 3.56%
30 | CCN1CCCC1CNC(=O)c1ccc(N2CCCC2=O)cc1 (stereo not drawn) | -0.17%
31 | O=C(COc1ccccc1)Nc1cccc2c1CCCC2 | -1.31%
32 | O=C(C1CCN(S(=O)(=O)N2CCOCC2)CC1)N1CCN(c2ccccc2)CC1 | 13.6%
33 | C[C@@H]1C=C[C@](Cc2ccccc2)(C(=O)NCCc2c[nH]c3ccccc23)N1C(=O)c1ccccc1 | 12.9%
34 | C=C1CCN([C@@H](CC(C)C)C(=O)Nc2ccc(OC)cc2)S(=O)(=O)c2ccccc21 | 7.78%
35 | Cc1cc(C)cc(NC(=O)CN2CCN(CCN=CC3=C(O)CC(C)(C)CC3=O)CC2)c1 | -15.1%
36 | O=C(CNC(=O)c1ccccc1Cl)Nc1ccc(Br)cc1C(=O)c1ccccc1 | 0.944%
37 | CCc1nn(CCCN2CCN(c3cccc(Cl)c3)CC2)c(=O)n1CCOc1ccccc1 | -15.1%
38 | Cc1ccc(C2=NCCn3c2c2ccccc2[n+]3[O-])cc1 | 0.371%
39 | CC(OC(=O)c1ccncc1)C(=O)Nc1cccc([N+](=O)[O-])c1 (stereo not drawn) | 5%
40 | CN1C(=O)c2ccc(NC(=O)c3cccc(N4C(=O)CCC4=O)c3)cc2C1=O | 9.04%
41 | Cc1ccc(C(=O)N/C(=C\c2ccc(-c3ccc(Br)cc3)o2)C(=O)NCCCN(C)C)cc1 | -84.2%
42 | Cc1cc(C)nc(Sc2ccc3nnc(C(F)(F)C(F)(F)C(F)(F)F)n3n2)n1 | 11%
43 | c1ccc(-c2nnc(CN3CCCc4ccccc43)o2)cc1 | -6.52%
44 | NC(=O)c1ccccc1NC(=O)Nc1cccc2ccccc12 | 18.4%
45 | CCN1CCN(CC(=O)NC2CCCC2)C(=O)C1=O | 6.06%
46 | Cc1cc(C)c(-c2cc(C(=O)Nc3cc(C)ccc3C)[nH]n2)c(O)c1 | 8.58%

Row | Compound | hERG current change (%, negative = inhibition) at 1uM
47 | Nc1c(N(C(=O)Nc2ccc(Cl)c(Cl)c2)C2CCCC2)c(=O)[nH]c(=O)n1Cc1ccccc1 | 11.5%
48 | COc1ccc(N2CCN(CCNC(=O)Nc3cccc(C)c3C)CC2)cc1 | 13.6%
49 | Cc1c([N+](=O)[O-])c(N)nn1C | 16.1%
50 | O=C(N/N=C/c1cccc([N+](=O)[O-])c1)c1cc2ccccc2o1 | 27.7%
51 | Cc1ccc(OCCOc2ccc(Br)cc2/C=N\NC(N)=O)cc1 | 10.4%
52 | COc1cccc(NC(=O)/C=C/c2ccc([N+](=O)[O-])cc2)c1 | 2.96%
53 | CC(NC(=O)c1ccccc1NS(C)(=O)=O)c1ccccc1 (stereo not drawn) | 4.52%
54 | CSCCC(NC(N)=O)C(=O)N(C)CC(=O)Nc1cc(C)ccc1C (stereo not drawn) | 7.13%
55 | CC(C)(C)OC(=O)COc1cc(F)ccc1[N+](=O)[O-] | 8.04%
56 | COc1cccc(NC=C2C(=O)OC3(CCCCC3)OC2=O)c1 | 3.18%
57 | Cc1ccc(NC(=O)NCC2CCN(Cc3cccc(Cl)c3)CC2)c(Cl)c1 | -28.5%
58 | Cc1ccc(-c2nnc(CSc3nnc(COc4cccc5ccccc45)n3-c3ccccc3)o2)cc1 | 5.64%
59 | Cn1cc(C(=O)N2CCN(c3cccc(Cl)c3)CC2)c(=O)c2cc(S(=O)(=O)N3CCOCC3)ccc21 | 10.9%
60 | CCN1CCN(C(c2cc3cc4c(cc3[nH]c2=O)OCO4)c2nnnn2C(C)(C)CC)CC1 (stereo not drawn) | 9.84%
61 | COc1cc(OC)cc(C(=O)NCc2n[nH]c(=S)n2-c2ccccc2)c1 | 12.3%
62 | CCOc1ccc(-c2noc(COC)n2)cc1OC | 5.48%
63 | CC(NC(=S)Nc1ccc(F)cc1)c1ccccc1 (stereo not drawn) | 12.4%
64 | C=CCc1ccccc1OCC(O)CN(CC)CC.Cl (stereo not drawn) | -0.033%
65 | COc1ccc(S(=O)(=O)N2CCC(C(=O)Nc3nnc(CCN4CCCCC4)s3)CC2)cc1 | 5.66%
66 | CCN(CC)CC(=O)Nc1ccc2c(c1)Nc1ccccc1CC2.Cl | 2.56%
67 | O=C(CSCc1cccc(Br)c1)N/N=C/c1ccc2c(c1)OCO2 | -2.15%
68 | O=C(N/N=C/c1ccc(O)c(O)c1)NC12CC3CC(CC(C3)C1)C2 | 7.25%
69 | Cc1ccc2nsnc2c1S(=O)(=O)N1CCOCC1 | 5.91%

Row | Compound | hERG current change (%, negative = inhibition) at 1uM
70 | Cc1ccc(N=C2NC(=O)/C(=C/c3cccnc3)S2)c(C)c1 | 2.8%
71 | Cc1onc(-c2ccccc2Cl)c1C(=O)OCC(=O)Nc1ccc2c(c1)OCO2 | 4.87%
72 | CCc1ccc(OCC(=O)N/N=C2\CC(=O)c3ccccc32)cc1 | 0.725%
73 | CN1C(=O)N2CN(C3CCCCC3)CN3C(=O)N(C)C1C23 (stereo not drawn) | 12.3%
74 | Cc1ccc(NC(=S)NCc2ccc3c(c2)cc(C)n3C)c(C)c1 | 15.1%
75 | Cc1cccc(-n2ncc3c(NCc4ccccc4)ncnc32)c1 | 13.7%
76 | O=C(NC(=S)Nc1ccccc1N1CCCC1)c1ccc(-c2cccc([N+](=O)[O-])c2)o1 | 4.38%
77 | COc1ccc(NC(=O)NCC(C)CSc2ccc(C)cc2)c(OC)c1 (stereo not drawn) | 10.3%
78 | CCOC(=O)COc1ccc(-c2nnc(-c3ccccc3)o2)cc1 | 5.38%
79 | Cc1cc(Br)ccc1OCCN1CC(C)OC(C)C1.O=C(O)C(=O)O (stereo not drawn) | 0.357%
80 | CC1NCCC2(O)CCCCC12 (stereo not drawn) | -0.491%
81 | CSc1ccc(Cl)c(C(=O)OCC(=O)N2CCOCC2)c1 | 9.24%
82 | CCCc1c(O)nc(SCCN(CCC)CCC)[nH]c1=O.Cl | -0.2%
83 | C/C(=N\OC(=O)c1ccc(F)cc1)c1sc(-c2ccccc2)nc1C | 8.62%
84 | CSc1nnc(SCC(=O)Nc2ccc3[nH]c(=O)[nH]c3c2)s1 | 11.2%
85 | Cc1ccc(C)c(NS(=O)(=O)c2c(C)nc3sccn3c2=O)c1 | 8.02%
86 | O=[N+]([O-])c1ccc2c(c1)C(N1CCOCC1)/C(=C/COc1ccc(F)cc1)O2 (stereo not drawn) | 7.51%
87 | CC(C)CNC(=O)COc1cccc(C(=O)NCc2ccccc2)c1 | 11%
88 | CN(C)S(=O)(=O)N1CCN(C(=O)N2CCOCC2)CC1 | 10.2%
89 | CCCc1c(C(=O)N/N=C(\C)CCc2ccc(OC)cc2)nnn1-c1nonc1N | 15.2%
90 | COc1cccc2c1O/C(=N\O)C(C(=O)Nc1cccc(Br)c1)C2 (stereo not drawn) | 13%
